“And” between values parts separate entries of the source, which are not always exact repeats. Equal values may be shown once. The shares of active, inactive and inconclusive entries below differ from those in the screen. For part of these data: Where the call is inconclusive, the potency comes from a doubtful curve fit. More than one record can exist for a structure, and the calls need not agree. The source made the active and inactive calls. Unless noted, the call rests on the fitted dose curve; in most records, active means well fitted curve in the direction sought with a large enough effect in the repeat runs; inconclusive means weak or mixed curves; inactive means no such curve, though single readings can be large; an effect the other way counts as inactive or inconclusive.
Assays:
[1] = target: Estrogen receptor (Homo sapiens) (UniProt P03372); experiment: qHTS assay to identify small molecule antagonists of the estrogen receptor alpha (ER-alpha) signaling pathway using the BG1 cell line in the presence of 0.1 nM 17-beta-estradiol (AID 1259244); further: nearly all actives have a fitted effect of over 50% in size
Chain of UniProt P03372 (P03372 whole entry, looked up): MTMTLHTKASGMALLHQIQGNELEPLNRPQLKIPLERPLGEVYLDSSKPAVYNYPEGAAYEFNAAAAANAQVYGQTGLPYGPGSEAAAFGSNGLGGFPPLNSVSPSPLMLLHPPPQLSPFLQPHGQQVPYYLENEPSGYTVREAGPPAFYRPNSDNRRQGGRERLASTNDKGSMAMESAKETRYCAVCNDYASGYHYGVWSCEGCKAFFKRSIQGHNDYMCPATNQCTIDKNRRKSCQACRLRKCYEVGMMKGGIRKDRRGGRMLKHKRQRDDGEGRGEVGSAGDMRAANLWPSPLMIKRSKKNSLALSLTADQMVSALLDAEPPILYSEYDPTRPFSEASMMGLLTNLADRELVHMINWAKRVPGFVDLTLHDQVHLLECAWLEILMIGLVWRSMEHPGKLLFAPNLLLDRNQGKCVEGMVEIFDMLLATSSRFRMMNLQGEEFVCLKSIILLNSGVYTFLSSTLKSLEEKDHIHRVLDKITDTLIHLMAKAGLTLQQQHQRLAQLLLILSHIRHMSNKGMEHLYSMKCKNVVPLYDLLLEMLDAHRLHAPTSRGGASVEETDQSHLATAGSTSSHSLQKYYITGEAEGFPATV
How it was run: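 Estradiol at 0.1 nM (final) stimulates the endogenous ER-alpha of VM7Luc4E2 cells carrying an ERE-driven luciferase; compounds are co-incubated 22 h at 37C and luciferase output quantified by luminescence.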

[2] = qHTS assay to identify small molecule agonists of the sonic hedgehog signaling (Shh) pathway - cell viability counter screen (AID 1259366); further: nearly all actives have a fitted effect of over 50% in size
How it was run: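 Same-well cytotoxicity read. Gli1-Luc reporter 3T3 cells; compounds 24hr, 37C/5% CO2; CellTiter-Fluor fluorescence.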

[3] = qHTS assay to identify small molecule antagonists of the sonic hedgehog signaling (Shh) pathway - cell viability counter screen (AID 1259367); further: nearly all actives have a fitted effect of over 55% in size
How it was run: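 Cells: 3T3 Gli1-Luc, 2,000/well, 4 hr pre-incubation. Compounds in DMSO, then conditioned medium. Incubation 24 hr, 37C, 5% CO2. CellTiter-Fluor at 23 hr, 1 hr, fluorescence.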

[4] = qHTS assay to identify small molecule antagonists of the sonic hedgehog signaling (Shh) pathway (AID 1259369; calls by dose curve; further: nearly all actives have a fitted effect of over 45% in size)
How it was run: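 For antagonist detection, the reporter line received test compounds together with conditioned medium, incubated 24hr at 37 C, 5% CO2, then luminescence was recorded following 30min room-temperature luciferase reagent incubation.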

[5] = target: Estrogen receptor beta (Homo sapiens) (UniProt Q92731); experiment: qHTS assay to identify small molecule antagonists of the estrogen receptor beta (ER-beta) signaling pathway (AID 1259378; active means well fitted inhibition curve with a large enough effect in the signal ratio in the repeat runs, not every such curve was filed as active; inconclusive means weak or mixed curves, or effect the other way; inactive means no such curve, though single readings can be large or run the other way; the % refers to the signal ratio; on activity, negative = inhibition: on the % scale 0 is the no-effect control and ±100 the full control effect); conditions: ER-beta-UAS-bla HEK293T, beta-lactamase FRET ratio, 16 h; activity, negative = inhibition: at 92.4 µM (top of the series) unless noted
Chain of UniProt Q92731 (Q92731 whole entry, looked up): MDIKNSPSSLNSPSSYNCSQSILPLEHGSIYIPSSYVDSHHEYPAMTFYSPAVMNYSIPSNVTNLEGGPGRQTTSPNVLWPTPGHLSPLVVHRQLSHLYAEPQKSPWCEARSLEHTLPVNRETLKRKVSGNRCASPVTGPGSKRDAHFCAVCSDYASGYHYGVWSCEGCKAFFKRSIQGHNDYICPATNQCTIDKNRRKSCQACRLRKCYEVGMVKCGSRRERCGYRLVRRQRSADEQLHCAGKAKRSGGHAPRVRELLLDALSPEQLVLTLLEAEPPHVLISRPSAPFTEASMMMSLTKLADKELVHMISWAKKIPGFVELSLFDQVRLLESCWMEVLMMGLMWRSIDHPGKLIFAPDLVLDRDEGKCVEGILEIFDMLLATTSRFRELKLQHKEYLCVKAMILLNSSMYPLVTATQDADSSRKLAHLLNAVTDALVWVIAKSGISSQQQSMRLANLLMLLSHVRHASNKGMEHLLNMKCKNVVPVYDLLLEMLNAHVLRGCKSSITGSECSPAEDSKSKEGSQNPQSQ
How it was run: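 Antagonist mode: compounds added to beta-lactamase reporter HEK293T ER-beta-UAS cells stimulated with E2 (1nM final), 16 hr at 37C. LiveBLAzer B/G FRET substrate, 2 hours room temperature, fluorescence read-out.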

[6] = qHTS assay to identify small molecule agonists of the androgen receptor (AR) signaling pathway in the presence of an antagonist - cell viability counter screen (AID 1259379); further: nearly all actives have a fitted effect of over 25% in size
How it was run: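 Seed MDA-kb2 at 3,000 cells/well; incubate 5 hr, 37C, 0% CO2. Add nilutamide to 3.0uM final, then pin compounds at 15 concentrations. Incubate 16 hr. Add CellTiter-Fluor at 15 hr, read fluorescence after 1 hr.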

[7] = qHTS assay to identify small molecule agonists of the estrogen receptor beta (ER-beta) signaling pathway - cell viability counter screen (AID 1259380); further: nearly all actives have a fitted effect of over 30% in size
How it was run: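 CellTiter-Glo read, 30 min RT, same wells as bla assay; cells ER-beta-UAS-bla HEK293T; 16 hr compound, 37C; medium 2% charcoal-stripped FBS.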

[8] = qHTS assay to identify small molecule HDAC inhibitors (AID 1259364);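 further: wild-type HCT-116 cells with endogenous class I/II HDAC activity; nearly all actives have a fitted effect of over 45% in size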
How it was run: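 Read-out: luminescence of HDAC-Glo I/II reagent, 30 min RT, reflecting class I/II deacetylase activity in whole HCT-116 cells pre-exposed 2 h to DMSO-dissolved compounds.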

[9] = target: Estrogen receptor beta (Homo sapiens) (UniProt Q92731); experiment: qHTS assay to identify small molecule agonists of the estrogen receptor beta (ER-beta) signaling pathway (AID 1259377; active means well fitted activation curve with a large enough effect in the signal ratio in the repeat runs, not every such curve was filed as active; inconclusive means weak or mixed curves, or effect the other way; the % refers to the signal ratio); conditions: ER-beta-UAS-bla HEK293T, beta-lactamase FRET ratio, 16 h; activation: at 92.4 µM (top of the series) unless noted
How it was run: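 Read-out: beta-lactamase FRET fluorescence. Cell line: ER-beta-UAS-bla HEK293T in 2% charcoal-stripped FBS. Exposure: 16 hr at 37C. Substrate step: 2 h at room temperature.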

[10] = qHTS assay to identify small molecule antagonists of the estrogen receptor beta (ER-beta) signaling pathway - cell viability counter screen (AID 1259382); further: nearly all actives have a fitted effect of over 55% in size
How it was run: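 In this multiplexed counter screen, cells were seeded at 2,000 per well in medium with 2% charcoal-stripped FBS and incubated 6 hr before compound and 1nM final E2 were added. Sixteen hours later, ATP-based luminescence reported viability.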

[11] = qHTS assay to identify small molecule phospholipidosis (PLD) inducers (AID 1259344; active means well fitted curve in the direction sought with a large enough effect; inconclusive means small, poorly fitted or top-dose-only effect, or another doubt; inactive means no such curve, though single readings can be large; an effect the other way counts as inactive or inconclusive)
How it was run: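 Phospholipidosis is scored by imaging LipidTOX-stained pits in HepG2 cells exposed to compound for 24 h at 37 C; pit counts and integrated intensities per well and per cell serve as outputs.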

[12] = qHTS assay to identify small molecule agonists or antagonists of the thyroid stimulating hormone receptor (TSHR) signaling pathway - wild type cell line counter screen (AID 1259384; calls by dose curve; on cAMP activity change: on the % scale 0 is the no-effect control and ±100 the full control effect); conditions: HEK293 wild type, cAMP HTRF counter-screen; cAMP activity change: at 92.4 µM (top of the series), stronger effect = higher value unless noted
How it was run: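 Counter screen in untransfected Hek293: compounds (15-point titration, triplicate) plus phosphodiesterase inhibitor Ro20-1724 added after 18 h plating; 30 min RT. Intracellular cAMP via competitive d2/cryptate immunoassay, 1 h incubation.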

[13] = qHTS assay to identify small molecule HDAC inhibitors - cell viability counter screen (AID 1259365); further: nearly all actives have a fitted effect of over 50% in size
How it was run: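 After overnight seeding at 1,500 cells per well, wild-type HCT-116 cultures took up compounds in DMSO for 2hr at 37 C. Viable cell content came from luminescence with CellTiter-Glo.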
Potency means the concentration at half of the fitted maximal effect; tags describe the fitted curve by direction and shape or compound fluorescence and quenching.

## CCCCN1C(=O)[C@@H]([C@H](O)C2CCCCC2)NC(=O)C12CCN(Cc1ccc(Oc3ccc(C(=O)O)cc3)cc1)CC2
[1]
  Potency: inconclusive: 61.1 µM [inhibitor, single point]
[2]
  Potency: inconclusive: 54.5 µM [cytotoxic]
[3]
  Potency: inconclusive: 43.3 µM [cytotoxic, partial curve]
[4]
  Potency: inconclusive: 43.3 µM [inhibitor, partial curve, poor fit]
[5]
  activity, negative = inhibition: inconclusive: -1.14%
[6]
  Potency: inconclusive: 54.5 µM [cytotoxic, partial curve, poor fit]
[7]
  Potency: inconclusive: 30.6 µM [cytotoxic, single point]

## CC(CCC(=O)O)(c1ccc(O)cc1)c1ccc(O)cc1
[1]
  Potency: inactive
[5]
  Potency: inconclusive: 61.8 µM [inhibitor, partial curve]
  activity, negative = inhibition: inconclusive: -34.8%

## Cc1oc(C)c(C(=O)Nc2ccccc2)c1C
[1]
  Potency: active: 24.3 µM
[8]
  Potency: active: 27.3 µM
[4]
  Potency: inconclusive: 61.1 µM [inhibitor, partial curve]
[9]
  Potency: inconclusive: 24.3 µM [rising, full curve]
[5]
  Potency: inconclusive: 21.7 µM [rising, full curve]
[6]
  Potency: inconclusive: 30.6 µM [cytotoxic, partial curve]

## CCc1oc2ccccc2c1C(=O)c1cc(I)c(O)c(I)c1
[1]
  Potency: inconclusive: 29.8 µM [inhibitor, single point]
[4]
  Potency: inconclusive: 33.5 µM [inhibitor, single point]
[9]
  Potency: inconclusive: 13.3 µM [rising, partial curve]
[5]
  Potency: inconclusive: 33.5 µM [rising, single point]
[6]
  Potency: inconclusive: 33.5 µM [cytotoxic, single point]
[7]
  Potency: inconclusive: 2.37 µM [cytotoxic, full curve, poor fit]
[10]
  Potency: inconclusive: 11.9 µM [cytotoxic, partial curve]

## CO[C@@H]1[C@H](OC(=O)/C=C/C=C/C=C/C=C/C(=O)O)CC[C@]2(CO2)[C@H]1[C@@]1(C)O[C@@H]1CC=C(C)C
[1]
  Potency: inconclusive: 6.11 µM [inhibitor, partial curve]
[5]
  Potency: inactive
[6]
  Potency: inconclusive: 54.5 µM [cytotoxic]

## CCCCCCC(C)O (stereo not drawn)
[1]
  Potency: inconclusive: 27.9 µM [inhibitor, partial curve, poor fit]

## CC(C)OC=O
[1]
  Potency: inconclusive: 72.9 µM [inhibitor, single point]
[2]
  Potency: inconclusive: 72.9 µM [cytotoxic, single point]
[3]
  Potency: inconclusive: 72.9 µM [cytotoxic, single point]
[4]
  Potency: active: 32.6 µM

## C/C=C(\C)C#N
[1]
  Potency: inconclusive: 75.7 µM [inhibitor, single point]
[5]
  Potency: inactive

## CCCC1CCOC(C)S1 (stereo not drawn)
[1]
  Potency: inactive
[4]
  Potency: inconclusive: 0.611 µM [inhibitor, single point]

## CN(CC1(C)CCCO1)S(=O)(=O)c1ccc(Cl)c(S(N)(=O)=O)c1 (stereo not drawn)
[11]
  Potency: inconclusive: 20 µM [activator, single point]
[4]
  Potency: inactive
[5]
  activity, negative = inhibition: inconclusive: 23.5% [at 42.5 µM]

## O=C(c1ccc(F)cc1)C1CCN(CCn2c(=S)[nH]c3ccccc3c2=O)CC1
[11]
  Potency: inconclusive: 11.2 µM [activator, partial curve, poor fit]
[9]
  Potency: inconclusive: 8.41 µM [rising, full curve]
[5]
  Potency: inconclusive: 9.44 µM [rising, full curve]
[7]
  Potency: inconclusive: 2.11 µM [cytotoxic, full curve]
[10]
  Potency: inconclusive: 13.3 µM [cytotoxic, partial curve]

## CCCCOc1ccc(CC(=O)NO)cc1
[11]
  Potency: inactive
[2]
  Potency: inconclusive: 10.6 µM [cytotoxic, partial curve]
[3]
  Potency: inconclusive: 18.8 µM [cytotoxic, partial curve]
[4]
  Potency: inconclusive: 16.8 µM [inhibitor, full curve]
[5]
  Potency: inconclusive: 7.5 µM [inhibitor, full curve]

## O=Cc1cc(O)ccc1Br
[8]
  Potency: inconclusive: 49.2 µM [inhibitor, partial curve]
[2]
  Potency: inconclusive: 69.6 µM [rising, partial curve, poor fit]
[3]
  Potency: inactive
[5]
  activity, negative = inhibition: inconclusive: -47.1%

## Cc1cc(N)c2cc(NC(=O)Nc3ccc4nc(C)cc(N)c4c3)ccc2n1
[11]
  Potency: inconclusive: 28.2 µM [activator, partial curve, poor fit]
[2]
  Potency: inconclusive: 11.9 µM
[3]
  Potency: inconclusive: 2.98 µM [rising, full curve]
[4]
  Potency: inconclusive: 5.31 µM [inhibitor, partial curve, poor fit]
[12]
  Potency: inconclusive: 31 µM

## CN(C)c1ccc(C=O)cc1
[8]
  Potency: inconclusive: 54.5 µM [inhibitor, partial curve, poor fit]

## O=S(=O)(O)c1ccc2nc(-c3ccccc3)[nH]c2c1
[8]
  Potency: active: 732 nM and active: 668 nM
[13]
  Potency: active: 23.2 µM and inconclusive: 10.6 µM [cytotoxic, partial curve]
[7]
  Potency: inconclusive: 13.3 µM [cytotoxic, partial curve]
[10]
  Potency: active: 32.7 µM and inconclusive: 26.6 µM [cytotoxic, single point]
[12]
  cAMP activity change: inconclusive: 6.24%

From PubChem BioAssay (Tox21)
